In all, about 350,000 compounds went through this assay and about 31,000 (8.9%) were called active. Inconclusive means that the source gave no clear call. Such entries were picked first, then a sample of the others. The call rests on the fitted dose curve; in most records, active means well fitted inhibition curve with a large enough effect; inconclusive means small, poorly fitted or top-dose-only effect; inactive means no such curve, though single readings can be large or run the other way. A potency beside an inconclusive call is a rough fit, not a confirmed value.
Target: Histone-lysine N-methyltransferase EHMT2 (Homo sapiens) (UniProt Q96KQ7)
UniProt Q96KQ7, sequence (Q96KQ7 whole entry, looked up): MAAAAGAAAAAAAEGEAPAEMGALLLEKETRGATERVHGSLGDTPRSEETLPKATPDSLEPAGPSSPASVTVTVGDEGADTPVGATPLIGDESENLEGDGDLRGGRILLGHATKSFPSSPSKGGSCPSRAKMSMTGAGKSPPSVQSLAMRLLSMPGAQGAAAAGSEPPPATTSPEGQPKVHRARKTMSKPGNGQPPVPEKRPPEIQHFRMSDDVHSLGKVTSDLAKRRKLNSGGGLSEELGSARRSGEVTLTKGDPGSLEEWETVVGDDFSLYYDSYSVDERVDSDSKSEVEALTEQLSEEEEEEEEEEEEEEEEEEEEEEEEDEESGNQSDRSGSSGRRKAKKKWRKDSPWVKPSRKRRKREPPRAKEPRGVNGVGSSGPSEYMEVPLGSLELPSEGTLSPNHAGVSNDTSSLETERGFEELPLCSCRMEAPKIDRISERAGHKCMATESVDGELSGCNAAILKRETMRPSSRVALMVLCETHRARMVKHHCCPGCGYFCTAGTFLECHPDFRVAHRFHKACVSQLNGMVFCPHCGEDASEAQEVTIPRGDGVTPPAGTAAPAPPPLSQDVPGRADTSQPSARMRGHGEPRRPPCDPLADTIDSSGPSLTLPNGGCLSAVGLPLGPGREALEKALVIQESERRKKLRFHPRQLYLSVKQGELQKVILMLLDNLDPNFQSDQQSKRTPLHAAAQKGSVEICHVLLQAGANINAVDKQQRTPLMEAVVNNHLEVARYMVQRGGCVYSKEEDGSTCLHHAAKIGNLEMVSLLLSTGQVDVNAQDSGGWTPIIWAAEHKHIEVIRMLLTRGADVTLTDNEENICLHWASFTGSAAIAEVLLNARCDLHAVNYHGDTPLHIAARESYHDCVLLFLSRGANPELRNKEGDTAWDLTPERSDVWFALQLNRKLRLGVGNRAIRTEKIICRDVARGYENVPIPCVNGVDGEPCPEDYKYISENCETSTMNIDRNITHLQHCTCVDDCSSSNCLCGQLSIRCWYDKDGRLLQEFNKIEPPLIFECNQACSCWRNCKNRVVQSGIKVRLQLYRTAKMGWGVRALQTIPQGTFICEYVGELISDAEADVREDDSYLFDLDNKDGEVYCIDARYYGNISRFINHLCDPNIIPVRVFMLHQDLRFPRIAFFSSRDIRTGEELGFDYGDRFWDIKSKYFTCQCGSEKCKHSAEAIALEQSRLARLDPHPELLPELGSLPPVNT
Test: qHTS Assay for Inhibitors of Histone Lysine Methyltransferase G9a; further: nearly all actives have a fitted effect of over 75% in size
Conditions: G9a H3K9 monomethylation, AlphaScreen, 2 h; activity, negative = inhibition: at 59 µM (top of the series) unless noted
Summary of the method: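 Step 1: enzyme (final 20 nM) with compound, 15 min RT. Step 2: substrate peptide 500 nM and SAM 20 uM, 2 h RT. Step 3: anti-H3K9me1 antibody and AlphaScreen beads, 10 min, then plate read.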
On the % scale 0 is the no-effect control and ±100 the full control effect; potency means the concentration at half of the fitted maximal effect; tags describe the fitted curve by direction and shape.

Compound	Potency	activity, negative = inhibition
CN(CC(=O)Nc1ccc(N2CCOCC2)cc1)C(=O)c1cn(-c2ccccc2)nc1-c1ccccc1	inconclusive: 56.2 µM [inhibitor, partial curve, poor fit]	–
c1ccc(CCc2nn3c(-c4ccncc4)nnc3s2)cc1	inconclusive: 3.16 µM [inhibitor, partial curve, poor fit]	–
Cc1onc(-c2ccccc2Cl)c1C(=O)Nc1sc2c(c1C(N)=O)CCC(C)C2 (stereo not drawn)	inconclusive: 31.6 µM [inhibitor, single point]	–
COc1cccc(CN2CC(C(=O)NCc3cccc(N4CCCC4)c3)CCC2=O)c1 (stereo not drawn)	active: 79.4 µM	–
O=C(O)C1Cc2ccccc2CN1C(=O)c1ccccc1 (stereo not drawn)	inconclusive: 31.6 µM [inhibitor, single point]	–
O=C(Cc1ccc(Br)cc1)N1CCOCC1	active: 79.4 µM	–
NC(N)=N/N=C/c1c(Cl)cccc1Cl	inactive	–
CCOC(=O)N1CCC(N2CCN(S(=O)(=O)c3ccc4ccccc4c3)CC2)CC1	active: 8.91 µM	–
CCOc1ccccc1CNC(=O)Cn1nc(N2CCN(c3ccccc3)CC2)ccc1=O	inconclusive: 28.2 µM [inhibitor, partial curve, poor fit]	–
Cc1cccc(NC(=S)NNC(=O)c2cccc([N+](=O)[O-])c2)c1	active: 20 µM	–
COc1ccc(CN2C(=O)/C(=C/c3ccncc3)SC2=S)cc1	active: 28.2 µM	–
CC(=O)c1cccc(NC(=O)c2onc(C)c2Cl)c1	–	inactive: -24.4% [at 102 µM]
Cc1nnsc1C(=O)NNc1ccc(C(C)(C)C)cc1	active: 1.78 µM	–
Cc1ccc(C(=O)Nc2cccc(S(=O)(=O)N3CCOCC3)c2)cc1[N+](=O)[O-]	–	inactive: 1.52% [at 102 µM]
COc1ccc(Cl)cc1NC(=O)N1CCN(C2CCCCC2)CC1	–	inactive: -19.1%
COc1ccc(CN(C)CC(O)COc2ccc(-c3ccccc3)cc2)cc1OC (stereo not drawn)	active: 39.8 µM	–
O=C(O)c1cc(N/C(=N\S(=O)(=O)c2ccc(F)cc2)c2ccccc2)ccc1O	inconclusive: 89.1 µM [inhibitor, single point]	–
O=C(Cc1ccc(F)cc1)OCN1C(=O)c2ccccc2C1=O	active: 28.2 µM	–
Cc1cc2c(cc1C)-c1nnnn1C(C)(C)C2	–	inactive: -0.961% [at 12.7 µM]
CN(C)c1ccc(CNC(=O)C2COc3ccccc3C2)cc1 (stereo not drawn)	inconclusive: 11.2 µM [inhibitor, partial curve, poor fit]	–
O=S1(=O)c2cccc3cccc(c23)N1Cc1nnc(-c2ccccc2Br)o1	active: 56.2 µM	–
CCOc1cc(C)c(C(C)C)cc1S(=O)(=O)n1cnc(C)c1	inconclusive: 50.1 µM [inhibitor, partial curve]	–
O=C(NCc1ccco1)c1ccc(Cn2c(SCc3ccccc3F)nc3cccnc32)cc1	inconclusive: 25.1 µM [inhibitor, partial curve, poor fit]	–
CCN1CCN(c2ncnc3c2cnn3-c2cccc(C)c2)CC1	inconclusive: 28.2 µM [inhibitor, single point]	–
O=C(CSc1nnc(-c2ccccc2O)n1Cc1ccccc1)NNC(=O)c1ccccc1O	inconclusive: 15.8 µM [inhibitor, single point]	–

Compound	Potency	activity, negative = inhibition
COc1ccccc1/C=C/CN1CCN(c2ccccc2)CC1	active: 11.2 µM	–
CC(NC(=O)NCCCn1ccnc1)(C(F)(F)F)C(F)(F)F	–	inactive: -12.5%
Cn1nnnc1SCCCNCc1cccc(OCc2ccccc2)c1	–	inactive: 1.37%
COc1cccc(C2C(C(=O)c3ccco3)=C(O)C(=O)N2CCN(C)C)c1OC (stereo not drawn)	inconclusive: 25.1 µM [inhibitor, single point]	–
COc1ccccc1-n1cnnc1SCC(=O)c1c[nH]c2ccccc12	–	inactive: 8.03%
CCOc1ccccc1NC(=O)C1CCCN1S(=O)(=O)c1ccc2nc(-c3ccccc3)[nH]c2c1 (stereo not drawn)	–	inactive: -11.7%
Cn1c(=S)n(/N=C/c2ccc3c(c2)OCO3)c2ccccc21	–	inactive: 0.348% [at 102 µM]
CC1CC(N(C(=O)c2ccc(Cl)cc2)c2ccccc2)c2ccccc2N1C(=O)c1ccco1 (stereo not drawn)	active: 44.7 µM	–
O=C(NC1CCCCC1)c1ccc2c(c1)N(Cc1ccccc1Cl)C(=O)c1ccccc1S2	–	inactive: 4.6%
S=c1[nH]nc(Nc2cccc3ccccc23)s1	active: 0.316 µM	–
Cc1ccc(C)c(N(CC(=O)NCc2ccco2)C(=O)CCC(=O)Nc2nccs2)c1	inconclusive: 79.4 µM [inhibitor, single point]	–
O=C1CSC(=Nc2ccccc2Cl)N1	inconclusive: 79.4 µM [inhibitor, single point]	–
COc1ccc(Nc2nc(Cl)nc(N3CCN(c4ccc(OC)cc4)CC3)n2)cc1	inconclusive: 3.55 µM [inhibitor, full curve, poor fit]	–
CCOC(=O)c1c(NC(=S)Nc2cc([N+](=O)[O-])ccc2OC)sc2c1CCCCC2	inconclusive: 25.1 µM [inhibitor, single point]	–
Cc1cc2c(c(=O)n1CC1CCCO1)C(c1ccco1)C(C#N)=C(N)O2 (stereo not drawn)	inconclusive: 89.1 µM [inhibitor, single point]	–
CCC(=O)Nc1cccc(NC(=O)CSc2nnc(C(C)C)n2CC)c1	–	inactive: 12.5% [at 102 µM]
Cc1ccc(S(C)(=O)=O)cc1C(=O)NC(C)C1CC2CCC1C2 (stereo not drawn)	–	inactive: -11.2% [at 102 µM]
Cc1ccc(N(Cc2ccccc2)C(=O)Cc2ccc(S(=O)(=O)N3CCOCC3)s2)cc1	–	inactive: 2.12% [at 102 µM]
Cc1ccc2occ(CC(=O)Nc3ccc(S(=O)(=O)N4CCC(C)CC4)cc3)c2c1	inconclusive: 28.2 µM [inhibitor, partial curve, poor fit]	–
Cc1ccc2[nH]c(=O)c(CN(C(=O)c3cccc([N+](=O)[O-])c3)C(C)C)cc2c1	inconclusive: 70.8 µM [inhibitor, partial curve, poor fit]	–
CCCCCCOc1ccc(/C=N/NC(=O)C2CC2)cc1	inconclusive: 31.6 µM [inhibitor, partial curve, poor fit]	–
COc1ccc(NC(=S)NNC(=O)c2cccnc2)cc1OC	active: 44.7 µM	–
C=C(C)C(=O)Nc1cccnc1Oc1ccc(F)cc1F	inconclusive: 50.1 µM [inhibitor, partial curve, poor fit]	–
Fc1cnc(Cl)nc1NC1CCCCC1	–	inactive: -5.88% [at 102 µM]
COc1ccc(C(c2nnnn2CC2CCCO2)N2CCN(c3cccc(C)c3C)CC2)cc1 (stereo not drawn)	inconclusive: 28.2 µM [inhibitor, single point]	–

Compound	Potency	activity, negative = inhibition
CCC(C)Sc1ccc([C@H]2N[C@@](Cc3ccccc3)(C(=O)OC)[C@H]3C(=O)N(CC)C(=O)[C@@H]23)cc1 (stereo partly drawn)	–	inactive: 0.625% [at 12.7 µM]
COc1cccc(N2C(=O)C(O)=C(C(C)=O)C2c2ccc(OC)c(OC)c2)c1 (stereo not drawn)	inconclusive: 39.8 µM [inhibitor, single point]	–
O=C(CN1CC(=O)Oc2ccccc21)NCc1ccco1	–	inconclusive: -90.7% [inhibitor]
O=C(CN1C(=O)/C(=C/c2ccccc2Cl)SC1=S)NC1CCS(=O)(=O)C1 (stereo not drawn)	–	inactive: -0.311% [at 102 µM]
O=C(Nc1ccc(Cl)cc1)[C@@H]1[C@@H]2C(=O)N(c3ccc(Cl)cc3Cl)C(=O)[C@@H]2[C@H]2C=CC=NN21	inconclusive: 3.55 µM [inhibitor, full curve, poor fit]	–
CCCCC(=O)Nc1ccc(N2CCN(C(=O)CC)CC2)cc1	inconclusive: 3.55 µM [inhibitor, partial curve, poor fit]	–
CCOc1cc(-c2ccc(OC(=O)c3ccccc3)c(OC)c2)cc(=O)c2c(C)oc(C)c12	inconclusive: 12.6 µM [inhibitor, partial curve, poor fit]	–
COc1ccccc1C(=O)NNC(=O)C(=O)Nc1ccc(C)cc1	–	inactive: 9.51% [at 102 µM]
COc1cccc(Cc2nc3ccccc3nc2SCC(=O)Nc2cc(OC)ccc2OC)c1	–	inactive: -46.9%
COc1ccc2c(Cl)c(C(=O)NCCc3ccc(S(N)(=O)=O)cc3)sc2c1	inconclusive: 31.6 µM [inhibitor, full curve]	–
CCOC(=O)CCN(Cc1sccc1C)S(=O)(=O)c1ccc(F)cc1	–	inactive: 41.8%
CCc1nc2scc(-c3ccccc3)c2c(=O)n1N	–	inconclusive: -79.7% [inhibitor]
O=C(c1ccncc1)c1ccc([N+](=O)[O-])cc1	–	inactive: -22.8% [at 102 µM]
Cc1cc(N)n(-c2ccc(S(N)(=O)=O)cc2[N+](=O)[O-])n1	inconclusive: 56.2 µM [inhibitor, partial curve, poor fit]	–
Cc1ccccc1-c1ccc(C(=O)Nc2cccc(F)c2)o1	active: 10 µM	–
CCC(C)N1C(=O)/C(=C/c2c(NCCCOC(C)C)nc3c(C)cccn3c2=O)SC1=S (stereo not drawn)	inconclusive: 89.1 µM [inhibitor, single point]	–
Cc1cc(C(=O)CSc2nnnn2-c2ccc(O)cc2)c(C)n1Cc1ccc2c(c1)OCO2	inconclusive: 7.08 µM [inhibitor, partial curve]	–
CN(NS(=O)(=O)c1ccccc1)c1nc2ccccc2nc1C(F)(F)F	inconclusive: 28.2 µM [inhibitor, single point]	–
CN(CC(=O)Nc1ccccc1Cl)CC(=O)Nc1sc2c(c1C(N)=O)CCC2	–	inactive: 64.3% [at 2.33 µM]
CCOP(=O)(OCC)c1nc(-c2ccccc2Cl)oc1N1CCOCC1	–	inactive: 5.73% [at 102 µM]
NCCCn1cnc2ccccc21	inconclusive: 25.1 µM [inhibitor, single point]	–
COc1cccc(-n2c(Cc3cc(=O)[nH]c(=O)[nH]3)nnc2SCC(=O)NC2CCCC2)c1	inconclusive: 89.1 µM [inhibitor, single point]	–
COc1ccccc1N1CCN(C(CNS(=O)(=O)c2ccccc2)c2cccnc2)CC1 (stereo not drawn)	inconclusive: 89.1 µM [inhibitor, single point]	–
